In publication PMC9911399, “Two distinct binding modes provide the RNA-binding protein RbFox with extraordinary sequence specificity”:
Changes are numbered by the printed parent chain; changes in the protein carry UniProt numbers. Some of the results follow.

T1: RBFOX1 RRM RbFoxmut (Fox-RRM*) (Homo sapiens, UniProt Q9NWB1 109-208, R118D;E147R;N151S;E152T)
T1 sequence: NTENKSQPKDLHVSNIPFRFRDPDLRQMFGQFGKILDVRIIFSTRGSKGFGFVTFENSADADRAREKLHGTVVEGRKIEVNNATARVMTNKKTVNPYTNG

B1: GUCCUCG (DNA:RNA)
RNA: GGGAGACCGGAAUUCAGAUUGUCCGUCCUCGUUAAAUCCCGUCGUAGCCACCA
DNA 1: CAATCTGAATTCCGGTCTCCC
DNA 2: TGGTGGCTACGACGGGATT
B2: AUGGUAU (DNA:RNA)
RNA: B1 RNA with G25A, C27G, C28G, C30A, G31U
DNA 1: CAATCTGAATTCCGGTCTCCC
DNA 2: TGGTGGCTACGACGGGATT
B3: AUCGUAG (DNA:RNA)
RNA: B1 RNA with G25A, C28G, C30A
DNA 1: CAATCTGAATTCCGGTCTCCC
DNA 2: TGGTGGCTACGACGGGATT
B4: CCUAGGA (DNA:RNA)
RNA: GGGAGACCGGAAUUCAGAUUGUCCCCUAGGAUUAAAUCCCGUCGUAGCCACCA
DNA 1: CAATCTGAATTCCGGTCTCCC
DNA 2: TGGTGGCTACGACGGGATT
B5: UUAAGGU (DNA:RNA)
RNA: B4 RNA with C25U, C26U, U27A, A31U
DNA 1: CAATCTGAATTCCGGTCTCCC
DNA 2: TGGTGGCTACGACGGGATT
B6: GUACUGC (DNA:RNA)
RNA: B1 RNA with C27A, C30G, G31C
DNA 1: CAATCTGAATTCCGGTCTCCC
DNA 2: TGGTGGCTACGACGGGATT
B7: CGCUCCG (DNA:RNA)
RNA: B1 RNA with G25C, U26G, C28U, U29C
DNA 1: CAATCTGAATTCCGGTCTCCC
DNA 2: TGGTGGCTACGACGGGATT
B8: CUCGCAC (DNA:RNA)
RNA: B1 RNA with G25C, C28G, U29C, C30A, G31C
DNA 1: CAATCTGAATTCCGGTCTCCC
DNA 2: TGGTGGCTACGACGGGATT
B9: AUGAGCG (DNA:RNA)
RNA: B1 RNA with G25A, C27G, C28A, U29G
DNA 1: CAATCTGAATTCCGGTCTCCC
DNA 2: TGGTGGCTACGACGGGATT
B10: UUCAUUU (DNA:RNA)
RNA: B1 RNA with G25U, C28A, C30U, G31U
DNA 1: CAATCTGAATTCCGGTCTCCC
DNA 2: TGGTGGCTACGACGGGATT
B11: CCUAGCG (DNA:RNA)
RNA: B4 RNA with G30C, A31G
DNA 1: CAATCTGAATTCCGGTCTCCC
DNA 2: TGGTGGCTACGACGGGATT
B12: GAGAAUA (DNA:RNA)
RNA: B4 RNA with C25G, C26A, U27G, G29A, G30U
DNA 1: CAATCTGAATTCCGGTCTCCC
DNA 2: TGGTGGCTACGACGGGATT
B13: AGGAAAA (DNA:RNA)
RNA: B4 RNA with C25A, C26G, U27G, G29A, G30A
DNA 1: CAATCTGAATTCCGGTCTCCC
DNA 2: TGGTGGCTACGACGGGATT
B14: GUUUGUG (DNA:RNA)
RNA: B1 RNA with C27U, C28U, U29G, C30U
DNA 1: CAATCTGAATTCCGGTCTCCC
DNA 2: TGGTGGCTACGACGGGATT
B15: AUGCAAA (DNA:RNA)
RNA: B1 RNA with G25A, C27G, U29A, C30A, G31A
DNA 1: CAATCTGAATTCCGGTCTCCC
DNA 2: TGGTGGCTACGACGGGATT
B16: UGCGCGA (DNA:RNA)
RNA: B4 RNA with C25U, C26G, U27C, A28G, G29C
DNA 1: CAATCTGAATTCCGGTCTCCC
DNA 2: TGGTGGCTACGACGGGATT
B17: CCGACCC (DNA:RNA)
RNA: B4 RNA with U27G, G29C, G30C, A31C
DNA 1: CAATCTGAATTCCGGTCTCCC
DNA 2: TGGTGGCTACGACGGGATT
B18: UGGAUUG (DNA:RNA)
RNA: B1 RNA with G25U, U26G, C27G, C28A, C30U
DNA 1: CAATCTGAATTCCGGTCTCCC
DNA 2: TGGTGGCTACGACGGGATT
B19: CCAAGGU (DNA:RNA)
RNA: B4 RNA with U27A, A31U
DNA 1: CAATCTGAATTCCGGTCTCCC
DNA 2: TGGTGGCTACGACGGGATT
B20: GUUAGAG (DNA:RNA)
RNA: B4 RNA with C25G, C26U, G30A, A31G
DNA 1: CAATCTGAATTCCGGTCTCCC
DNA 2: TGGTGGCTACGACGGGATT
B21: GUUAUGC (DNA:RNA)
RNA: B4 RNA with C25G, C26U, G29U, A31C
DNA 1: CAATCTGAATTCCGGTCTCCC
DNA 2: TGGTGGCTACGACGGGATT
B22: UGUACUC (DNA:RNA)
RNA: B4 RNA with C25U, C26G, G29C, G30U, A31C
DNA 1: CAATCTGAATTCCGGTCTCCC
DNA 2: TGGTGGCTACGACGGGATT
B23: AGGUAAC (DNA:RNA)
RNA: GGGAGACCGGAAUUCAGAUUGUCCAGGUAACUUAAAUCCCGUCGUAGCCACCA
DNA 1: CAATCTGAATTCCGGTCTCCC
DNA 2: TGGTGGCTACGACGGGATT
B24: ACUAGGU (DNA:RNA)
RNA: B4 RNA with C25A, A31U
DNA 1: CAATCTGAATTCCGGTCTCCC
DNA 2: TGGTGGCTACGACGGGATT
B25: CCUCCAG (DNA:RNA)
RNA: B4 RNA with A28C, G29C, G30A, A31G
DNA 1: CAATCTGAATTCCGGTCTCCC
DNA 2: TGGTGGCTACGACGGGATT
B26: ACAGAUG (DNA:RNA)
RNA: B23 RNA with G26C, G27A, U28G, A30U, C31G
DNA 1: CAATCTGAATTCCGGTCTCCC
DNA 2: TGGTGGCTACGACGGGATT
B27: GACUGAC (DNA:RNA)
RNA: B23 RNA with A25G, G26A, G27C, A29G
DNA 1: CAATCTGAATTCCGGTCTCCC
DNA 2: TGGTGGCTACGACGGGATT
B28: AAGCAAA (DNA:RNA)
RNA: B23 RNA with G26A, U28C, C31A
DNA 1: CAATCTGAATTCCGGTCTCCC
DNA 2: TGGTGGCTACGACGGGATT
B29: GUGCAUC (DNA:RNA)
RNA: B23 RNA with A25G, G26U, U28C, A30U
DNA 1: CAATCTGAATTCCGGTCTCCC
DNA 2: TGGTGGCTACGACGGGATT
B30: AAACGCG (DNA:RNA)
RNA: B1 RNA with G25A, U26A, C27A, U29G
DNA 1: CAATCTGAATTCCGGTCTCCC
DNA 2: TGGTGGCTACGACGGGATT
B31: UCUUGCU (DNA:RNA)
RNA: B4 RNA with C25U, A28U, G30C, A31U
DNA 1: CAATCTGAATTCCGGTCTCCC
DNA 2: TGGTGGCTACGACGGGATT

What follows are binders tested against T1, RBFOX1 RRM RbFoxmut (Fox-RRM*) (assay: EMSA; HiTS-Eq, 1 nM pool, 10 min; buffer printed only for the single-RNA assays: 10 mM Tris pH 7.5, 150 mM NaCl, 3.4 mM EDTA, 0.001% NP-40, 30 C). Conditions: tags: His6 N-terminal (pET28a); label: 5' 32P.
How it was run: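 These values rest on relative association constants, computed from read-count changes of each RNA species versus the control reaction and normalised to the cognate motif. Reads came from free RNA recovered by 8% native PAGE after purified RbFox RRM (wild type or mutant) at increasing concentrations was equilibrated for 10 min in 50 µL with 1 nM of a 5′-radiolabelled pool with 7 randomized nucleotides and DNA-annealed flanks.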
With B1 the binding signal was 0.114 KA relative to UGCAUGU. In the case of B2, the binding signal is reported as 0.211 KA relative to UGCAUGU. In the case of B3, the binding signal is reported as 0.176 KA relative to UGCAUGU. B4 was tested, and the binding signal was 0.0816 KA relative to UGCAUGU. B5 was tested, and the binding signal was 0.0813 KA relative to UGCAUGU. For B6, the binding signal was 0.0789 KA relative to UGCAUGU. With B7 the binding signal was 0.0874 KA relative to UGCAUGU. B8 was tested, and the binding signal was 0.11 KA relative to UGCAUGU. For B9, the binding signal was 0.197 KA relative to UGCAUGU. For B10, the binding signal was 0.0915 KA relative to UGCAUGU. In the case of B11, the binding signal is reported as 0.116 KA relative to UGCAUGU. For B12, the binding signal was 0.152 KA relative to UGCAUGU. With B13 the binding signal was 0.0979 KA relative to UGCAUGU. In the case of B14, the binding signal is reported as 0.462 KA relative to UGCAUGU. With B15 the binding signal was 0.0951 KA relative to UGCAUGU. In the case of B16, the binding signal is reported as 0.0898 KA relative to UGCAUGU. In the case of B17, the binding signal is reported as 0.0683 KA relative to UGCAUGU. For B18, the binding signal was 0.526 KA relative to UGCAUGU. With B19 the binding signal was 0.1 KA relative to UGCAUGU. In the case of B20, the binding signal is reported as 0.13 KA relative to UGCAUGU. With B21 the binding signal was 0.21 KA relative to UGCAUGU. B22 was tested, and the binding signal was 0.0695 KA relative to UGCAUGU. With B23 the binding signal was 0.0778 KA relative to UGCAUGU. With B24 the binding signal was 0.117 KA relative to UGCAUGU. With B25 the binding signal was 0.101 KA relative to UGCAUGU. With B26 the binding signal was 0.138 KA relative to UGCAUGU. With B27 the binding signal was 0.139 KA relative to UGCAUGU. In the case of B28, the binding signal is reported as 0.0764 KA relative to UGCAUGU. For B29, the binding signal was 0.566 KA relative to UGCAUGU. For B30, the binding signal was 0.107 KA relative to UGCAUGU. In the case of B31, the binding signal is reported as 0.103 KA relative to UGCAUGU.
